Laboratory results as given in PMC10630410, “Functional dissection of PRC1 subunits RYBP and YAF2 during neural differentiation of embryonic stem cells” (Nature Communications, 2023).
No constants are given. Whether binding was seen depends on the method and setting. In cells and extracts the contact can be indirect. Some entries that bind do so weakly or less than the wild type. For part of these data: Sequences can lack the tags named with a protein.

Tests used:
[1] = target: T1, RYBP^ΔC-terminus (aa 1-145) (mouse) (UniProt Q8CCI5); assay: co-IP; Flag co-IP from HEK293T cells transfected with Flag-tagged full-length or deletion constructs; IP buffer 20 mM Tris-HCl pH 8.0, 150 mM NaCl, 10% glycerol, 0.5% Triton X-100, 1 mM EDTA, 4 °C, 4 hrs; Western blot
T1 sequence: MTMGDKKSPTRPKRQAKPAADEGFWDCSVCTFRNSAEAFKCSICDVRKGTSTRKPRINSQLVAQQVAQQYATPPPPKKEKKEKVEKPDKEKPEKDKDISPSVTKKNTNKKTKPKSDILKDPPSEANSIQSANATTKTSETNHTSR

[2] = target: T2, Full-length RYBP (mouse) (UniProt Q8CCI5); assay: as above
T2 sequence: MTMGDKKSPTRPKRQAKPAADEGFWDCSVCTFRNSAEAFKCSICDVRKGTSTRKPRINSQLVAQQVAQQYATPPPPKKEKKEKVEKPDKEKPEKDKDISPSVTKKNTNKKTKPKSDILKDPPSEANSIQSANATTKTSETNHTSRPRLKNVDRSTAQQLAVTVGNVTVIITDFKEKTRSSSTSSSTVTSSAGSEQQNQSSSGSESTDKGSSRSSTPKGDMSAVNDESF

[3] = target: T3, Flag-tagged Yaf2^(Δzinc finger) (aa 44-179) (mouse) (UniProt Q99LW6); assay: as above
T3 sequence: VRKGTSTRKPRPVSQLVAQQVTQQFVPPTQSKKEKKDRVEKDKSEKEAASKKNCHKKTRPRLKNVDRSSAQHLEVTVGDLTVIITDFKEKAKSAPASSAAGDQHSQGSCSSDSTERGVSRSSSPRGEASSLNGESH

[4] = target: T4, Flag-tagged full-length Yaf2 (mouse) (UniProt Q99LW6); assay: as above
T4 sequence: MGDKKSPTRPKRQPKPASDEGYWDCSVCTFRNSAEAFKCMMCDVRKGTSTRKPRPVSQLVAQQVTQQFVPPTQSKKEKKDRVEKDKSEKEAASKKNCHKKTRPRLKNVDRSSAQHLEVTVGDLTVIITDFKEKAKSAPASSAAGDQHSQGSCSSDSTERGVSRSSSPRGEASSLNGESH

[5] = target: T5, Flag-tagged Yaf2^ΔC-terminus (aa 1-101) (mouse) (UniProt Q99LW6); assay: as above
T5 sequence: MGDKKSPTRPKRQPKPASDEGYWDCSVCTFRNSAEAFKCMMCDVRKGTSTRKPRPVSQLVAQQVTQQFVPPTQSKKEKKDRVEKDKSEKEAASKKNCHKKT

[6] = target: T6, RYBP^(Δzinc finger) (aa 45-228) (mouse) (UniProt Q8CCI5); assay: as above
T6 sequence: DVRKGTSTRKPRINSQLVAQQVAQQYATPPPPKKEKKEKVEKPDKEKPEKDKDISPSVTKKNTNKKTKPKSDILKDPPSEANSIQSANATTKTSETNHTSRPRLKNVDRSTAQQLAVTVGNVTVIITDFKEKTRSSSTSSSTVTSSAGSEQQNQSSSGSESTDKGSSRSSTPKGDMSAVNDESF

[7] = target: T7, endogenous RYBP (HEK293T cells) (human (endogenous in HEK293T)) (UniProt Q8N488); assay: co-IP; endogenous co-IP from HEK293T cells with an anti-YAF2 or an anti-RYBP antibody; Western blot
T7 sequence: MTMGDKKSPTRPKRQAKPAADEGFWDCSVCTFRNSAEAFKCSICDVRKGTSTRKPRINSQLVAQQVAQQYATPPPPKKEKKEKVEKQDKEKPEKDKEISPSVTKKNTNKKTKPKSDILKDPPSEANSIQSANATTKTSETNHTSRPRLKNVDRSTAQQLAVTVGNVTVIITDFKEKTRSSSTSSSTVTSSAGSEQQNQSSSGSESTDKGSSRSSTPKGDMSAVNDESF

[8] = target: T8, endogenous YAF2 (HEK293T cells) (human (endogenous in HEK293T)) (UniProt Q8IY57); assay: as above
T8 sequence: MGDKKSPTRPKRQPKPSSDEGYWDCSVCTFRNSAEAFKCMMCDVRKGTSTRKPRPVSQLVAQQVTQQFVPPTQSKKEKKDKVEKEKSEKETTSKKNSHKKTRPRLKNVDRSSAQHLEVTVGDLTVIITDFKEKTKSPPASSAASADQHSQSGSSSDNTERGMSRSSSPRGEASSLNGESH

[9] = target: Flag-tagged Ring1b-N-terminus (aa 1-50) (mouse) (UniProt Q9CQJ4); assay: co-IP; Flag co-IP from HEK293T cells transfected with Flag-tagged full-length or deletion constructs; IP buffer 20 mM Tris-HCl pH 8.0, 150 mM NaCl, 10% glycerol, 0.5% Triton X-100, 1 mM EDTA, 4 °C, 4 hrs; Western blot
[10] = target: Flag-tagged full-length RING1B (mouse) (UniProt Q9CQJ4); assay: as above
[11] = target: T9, Flag-tagged Ring1b-C-terminus (aa 95-336) (mouse) (UniProt Q9CQJ4); assay: as above
T9 sequence: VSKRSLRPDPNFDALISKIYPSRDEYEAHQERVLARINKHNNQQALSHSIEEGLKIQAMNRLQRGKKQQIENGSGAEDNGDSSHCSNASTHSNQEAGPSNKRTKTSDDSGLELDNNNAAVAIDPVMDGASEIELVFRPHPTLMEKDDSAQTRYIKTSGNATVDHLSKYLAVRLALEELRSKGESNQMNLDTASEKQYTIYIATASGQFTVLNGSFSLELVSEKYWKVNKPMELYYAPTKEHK

[12] = target: Flag-tagged Ring1b-ring finger region (aa 49-95) (mouse) (UniProt Q9CQJ4); assay: as above
[13] = target: FLAG-RING1B (in mESCs) (mouse) (UniProt Q9CQJ4); assay: co-IP; Flag co-IP from mESCs transfected with Ring1b-Flag, with or without doxycycline induction of Yaf2-HA; Western blot
[14] = target: T10, GST-RING1B (mouse, UniProt Q9CQJ4 1-336); assay: pull-down; 300 ng GST-RING1B with 1 mg total cell extracts of mESCs and His-mYAF2-mCherry at 0, 100, 300 ng in PBS, 4 °C, 4 hrs; glutathione agarose; Western blot for RYBP; only the target purified
T10 construct: RING1B (Ring1b), the coding region amplified from mouse cDNA, in pGEX-4T; also called pGEX-4T-mRing1b; source: E. coli BL21 (DE3), purified (glutathione agarose); not shown: GST, N-terminal, kept
T10 sequence (looked up): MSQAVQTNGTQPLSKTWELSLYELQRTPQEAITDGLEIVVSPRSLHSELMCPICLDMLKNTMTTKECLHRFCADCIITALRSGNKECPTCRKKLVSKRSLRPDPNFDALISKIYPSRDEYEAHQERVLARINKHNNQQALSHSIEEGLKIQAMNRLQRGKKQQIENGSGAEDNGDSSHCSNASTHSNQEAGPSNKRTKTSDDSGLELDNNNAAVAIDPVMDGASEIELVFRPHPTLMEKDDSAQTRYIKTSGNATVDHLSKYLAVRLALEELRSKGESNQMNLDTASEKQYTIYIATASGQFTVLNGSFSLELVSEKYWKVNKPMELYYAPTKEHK

Molecule: RING1B (partner of the RYBP and YAF2 constructs in HEK293T cells) (from UniProt Q99496 1-336)
- binding [1]: no binding
- binding [2]: binds
- binding [3]: binds
- binding [4]: binds
- binding [5]: no binding
- binding [6]: binds

Molecule: endogenous RING1B (HEK293T cells) (from UniProt Q99496 1-336)
- binding [7]: binds
- binding [8]: binds

B1: RYBP (partner of the Flag-RING1B constructs in HEK293T cells) (protein, UniProt Q8N488 1-228)
chain: MTMGDKKSPTRPKRQAKPAADEGFWDCSVCTFRNSAEAFKCSICDVRKGTSTRKPRINSQLVAQQVAQQYATPPPPKKEKKEKVEKQDKEKPEKDKEISPSVTKKNTNKKTKPKSDILKDPPSEANSIQSANATTKTSETNHTSRPRLKNVDRSTAQQLAVTVGNVTVIITDFKEKTRSSSTSSSTVTSSAGSEQQNQSSSGSESTDKGSSRSSTPKGDMSAVNDESF
- binding [9]: no binding
- binding [10]: binds
- binding [11]: binds
- binding [12]: no binding

B2: endogenous RYBP (mESCs) (protein, UniProt Q8CCI5 1-228)
chain: MTMGDKKSPTRPKRQAKPAADEGFWDCSVCTFRNSAEAFKCSICDVRKGTSTRKPRINSQLVAQQVAQQYATPPPPKKEKKEKVEKPDKEKPEKDKDISPSVTKKNTNKKTKPKSDILKDPPSEANSIQSANATTKTSETNHTSRPRLKNVDRSTAQQLAVTVGNVTVIITDFKEKTRSSSTSSSTVTSSAGSEQQNQSSSGSESTDKGSSRSSTPKGDMSAVNDESF
- binding [13]: binds
- binding [14]: binds

B3: His-mYAF2-mCherry (natural protein, mouse, UniProt Q99LW6 1-179, looked up)
chain: MGDKKSPTRPKRQPKPASDEGYWDCSVCTFRNSAEAFKCMMCDVRKGTSTRKPRPVSQLVAQQVTQQFVPPTQSKKEKKDRVEKDKSEKEAASKKNCHKKTRPRLKNVDRSSAQHLEVTVGDLTVIITDFKEKAKSAPASSAAGDQHSQGSCSSDSTERGVSRSSSPRGEASSLNGESH
notes: YAF2 (Yaf2), the coding region amplified from mouse cDNA, in pET-28a; also called His-YAF2; pET-28a-mYaf2-mCherry; source: E. coli BL21 (DE3), purified (Ni-NTA); not shown: His6, N-terminal, kept
- binding [13]: binds

B4: YAF2 (partner of the Flag-RING1B constructs in HEK293T cells) (protein, UniProt Q8IY57 1-180)
chain: MGDKKSPTRPKRQPKPSSDEGYWDCSVCTFRNSAEAFKCMMCDVRKGTSTRKPRPVSQLVAQQVTQQFVPPTQSKKEKKDKVEKEKSEKETTSKKNSHKKTRPRLKNVDRSSAQHLEVTVGDLTVIITDFKEKTKSPPASSAASADQHSQSGSSSDNTERGMSRSSSPRGEASSLNGESH
- binding [9]: no binding
- binding [10]: binds
- binding [11]: binds
- binding [12]: no binding

B5: endogenous RYBP (HEK293T cells) (protein, UniProt Q8N488 1-228)
chain: MTMGDKKSPTRPKRQAKPAADEGFWDCSVCTFRNSAEAFKCSICDVRKGTSTRKPRINSQLVAQQVAQQYATPPPPKKEKKEKVEKQDKEKPEKDKEISPSVTKKNTNKKTKPKSDILKDPPSEANSIQSANATTKTSETNHTSRPRLKNVDRSTAQQLAVTVGNVTVIITDFKEKTRSSSTSSSTVTSSAGSEQQNQSSSGSESTDKGSSRSSTPKGDMSAVNDESF
- binding [8]: no binding

B6: endogenous YAF2 (HEK293T cells) (protein, UniProt Q8IY57 1-180)
chain: MGDKKSPTRPKRQPKPSSDEGYWDCSVCTFRNSAEAFKCMMCDVRKGTSTRKPRPVSQLVAQQVTQQFVPPTQSKKEKKDKVEKEKSEKETTSKKNSHKKTRPRLKNVDRSSAQHLEVTVGDLTVIITDFKEKTKSPPASSAASADQHSQSGSSSDNTERGMSRSSSPRGEASSLNGESH
- binding [7]: no binding
